Data published in article PMC10897228.
No constants are given. Whether binding was seen depends on the method and setting. Some entries that bind do so weakly or less than the wild type.

By UniProt entry, the sequences of proteins in these tests, tags left out. Where a name states a change or a piece, a line headed by the entry shows the natural chain unless it says otherwise. Chains listed by the source or under a name are the forms on record and can include a tag or linker.
UniProt Q99MB2: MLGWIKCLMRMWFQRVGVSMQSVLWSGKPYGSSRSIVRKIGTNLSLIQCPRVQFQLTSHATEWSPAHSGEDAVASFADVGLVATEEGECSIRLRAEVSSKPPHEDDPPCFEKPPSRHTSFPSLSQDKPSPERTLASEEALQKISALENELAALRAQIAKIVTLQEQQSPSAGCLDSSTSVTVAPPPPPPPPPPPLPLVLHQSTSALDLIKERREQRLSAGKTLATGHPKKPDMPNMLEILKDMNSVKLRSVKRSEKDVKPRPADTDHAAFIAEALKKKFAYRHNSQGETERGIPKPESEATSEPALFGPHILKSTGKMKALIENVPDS
UniProt Q8VED8: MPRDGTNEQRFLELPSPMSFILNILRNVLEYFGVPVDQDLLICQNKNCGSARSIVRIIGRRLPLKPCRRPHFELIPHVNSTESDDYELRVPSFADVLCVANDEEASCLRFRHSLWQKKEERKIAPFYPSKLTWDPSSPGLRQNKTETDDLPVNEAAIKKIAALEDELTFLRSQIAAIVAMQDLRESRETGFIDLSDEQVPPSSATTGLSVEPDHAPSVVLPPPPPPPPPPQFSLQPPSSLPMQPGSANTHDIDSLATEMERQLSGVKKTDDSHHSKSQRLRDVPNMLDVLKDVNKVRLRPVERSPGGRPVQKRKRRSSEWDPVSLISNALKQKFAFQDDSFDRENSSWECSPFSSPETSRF
MYO19-919-970-F948A (Q96H55, form named): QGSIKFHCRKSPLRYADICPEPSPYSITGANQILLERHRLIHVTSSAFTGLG

Key:
Mtfr1 (mouse) = Mtfr1 (mouse) (UniProt Q99MB2); test: two-hybrid; LexA-based yeast two-hybrid growth assay in EGY48; MIRO1 construct as prey (pJG4-5), bait in pEG202; streaked on SC-Leu+Gal, 30 °C
Mtfr2 (mouse) = Mtfr2 (mouse) (UniProt Q8VED8); test: as above
Trak1-577-620 (mouse) = target: T1, Trak1-577-620 (mouse) (UniProt Q6PD31); test: two-hybrid; fluorescence yeast two-hybrid (f-Y2H), LexA-based, EGY48; MIRO1 prey (pJG4-5), bait in pEG202; galactose induction, permeabilised cells in buffer Z with fluorescein di-beta-D-galactopyranoside; well fluorescence minus empty vector
T1 sequence: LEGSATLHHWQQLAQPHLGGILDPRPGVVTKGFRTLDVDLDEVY

[1] = target: MYO19-919-970-F948A (human) (UniProt Q96H55); test: as above
[2] = target: T2, Trak1-577-620-D599R (mouse) (UniProt Q6PD31); test: as above
T2 sequence: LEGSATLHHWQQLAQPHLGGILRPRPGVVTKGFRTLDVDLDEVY

[3] = target: T3, Trak1-577-620-L594A (mouse) (UniProt Q6PD31); test: as above
T3 sequence: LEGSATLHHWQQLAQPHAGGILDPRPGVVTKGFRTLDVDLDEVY

B1: MIRO1-1-594 (domain or fragment, UniProt Q8IXI2 1-594)
chain: MKKDVRILLVGEPRVGKTSLIMSLVSEEFPEEVPPRAEEITIPADVTPERVPTHIVDYSEAEQSDEQLHQEISQANVICIVYAVNNKHSIDKVTSRWIPLINERTDKDSRLPLILVGNKSDLVEYSSMETILPIMNQYTEIETCVECSAKNLKNISELFYYAQKAVLHPTGPLYCPEEKEMKPACIKALTRIFKISDQDNDGTLNDAELNFFQRICFNTPLAPQALEDVKNVVRKHISDGVADSGLTLKGFLFLHTLFIQRGRHETTWTVLRRFGYDDDLDLTPEYLFPLLKIPPDCTTELNHHAYLFLQSTFDKHDLDRDCALSPDELKDLFKVFPYIPWGPDVNNTVCTNERGWITYQGFLSQWTLTTYLDVQRCLEYLGYLGYSILTEQESQASAVTVTRDKKIDLQKKQTQRNVFRCNVIGVKNCGKSGVLQALLGRNLMRQKKIREDHKSYYAINTVYVYGQEKYLLLHDISESEFLTEAEIICDVVCLVYDVSNPKSFEYCARIFKQHFMDSRIPCLIVAAKSDLHEVKQEYSISPTDFCRKHKMPPPQAFTCNTADAPSKDIFVKLTTMAMYPHVTQADLKSSTFWL
Q: Which binding (Mtfr1 (mouse)) does the source give for B1 here?
A: binds

Q: And the binding (Mtfr2 (mouse))?
A: binds

Q: And the binding (Trak1-577-620 (mouse))?
A: binds

Q: What about the binding [1] of the same binder?
A: no binding

Q: What about the binding [2] of the same binder?
A: binds

Q: What about the binding [3] of the same binder?
A: no binding
